# Reference: PubChem BioAssay (NCATS)
# Values joined by “and” are separate entries in the source; they are usually repeats but may differ in a detail not shown here. Equal entries are not always repeated. The shares of active, inactive and inconclusive entries below differ from those in the screen. Potencies beside an inconclusive call are fits to weak or partial responses and may not hold up. Active and inactive are the calls of the source. Calls come from the whole dose curve; as a rule, active = well fitted curve in the direction sought with a large enough effect; inconclusive = small, poorly fitted or top-dose-only effect, or another doubt; inactive = no such curve, though single readings can be large; an effect the other way counts as inactive or inconclusive.
# How the values were obtained:
# [1] = qHTS of pediatric cancer cell lines to identify multiple opportunities for drug repurposing: Primary screen for SK-N-SH cells (AID 1347098); settings: SK-N-SH viability, CellTiter-Glo luminescence, 48 h; activity change, negative = cytotoxic: at 57 µM (top of the series); note: nearly all actives have a fitted effect of over 65% in size
# Outline: (§1)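 Cells (500-1,000/well) rested 5 h, then received compounds for 48 h; metabolically active cells were measured by CellTiter-Glo luminescence. Final concentrations spanned up to 46 µM (MIPE, 11-point) or 0.59 nM-46 µM (NPC, 8-point) in primary screens, 11-point in follow-ups.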
# [2] = qHTS of pediatric cancer cell lines to identify multiple opportunities for drug repurposing: Primary screen for Saos-2 cells (AID 1347097); note: nearly all actives have a fitted effect of over 40% in size
# Outline: (§2)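 Readout: CellTiter-Glo luminescence, 48 h treatment. Controls DMSO (neutral) and bortezomib 2.3 µM final (positive). Potency and efficacy taken from primary-screen concentration-response curves.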
# [3] = qHTS of pediatric cancer cell lines to identify multiple opportunities for drug repurposing: Primary screen for BT-12 cells (AID 1347101); note: nearly all actives have a fitted effect of over 25% in size
# Outline: as §1
# [4] = qHTS of pediatric cancer cell lines to identify multiple opportunities for drug repurposing: Primary screen for Rh18 cells (AID 1347102); settings: Rh18 rhabdomyosarcoma viability, CellTiter-Glo luminescence, 48 h; activity change, negative = cytotoxic: at 46 µM (top of the series); note: nearly all actives have a fitted effect of over 65% in size
# Outline: (§3)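 Cells (500-1,000/well) in growth media were settled 5 h at 37 degrees C, then given compounds for 48 h. Viability was read as CellTiter-Glo luminescence. Primary runs used MIPE at 11 points (0.78 nM-46 µM) and NPC at 8 points (0.59 nM-46 µM); follow-ups used 11 points.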
# [5] = qHTS of pediatric cancer cell lines to identify multiple opportunities for drug repurposing: Primary screen for RD cells (AID 1347104); note: nearly all actives have a fitted effect of over 55% in size
# Outline: as §2
# [6] = qHTS of pediatric cancer cell lines to identify multiple opportunities for drug repurposing: Primary screen for MG 63 (6-TG R) cells (AID 1347105); settings: MG 63 (6-TG R) viability, CellTiter-Glo, 48 h; activity change, negative = cytotoxic: at 46 µM (top of the series); note: nearly all actives have a fitted effect of over 50% in size
# Outline: as §2
# [7] = qHTS of pediatric cancer cell lines to identify multiple opportunities for drug repurposing: Primary screen for OHS-50 cells (AID 1347103); note: nearly all actives have a fitted effect of over 40% in size
# Outline: as §1
# [8] = qHTS of pediatric cancer cell lines to identify multiple opportunities for drug repurposing: Primary screen for NB1643 cells (AID 1347099); note: nearly all actives have a fitted effect of over 50% in size
# Outline: as §2
# [9] = qHTS of pediatric cancer cell lines to identify multiple opportunities for drug repurposing: Primary screen for LAN-5 cells (AID 1347100); settings: LAN-5 neuroblastoma viability, CellTiter-Glo luminescence, 48 h; activity change, negative = cytotoxic: at 46 µM (top of the series)
# Outline: as §3
# [10] = qHTS of pediatric cancer cell lines to identify multiple opportunities for drug repurposing: Primary screen for control Hh wild type fibroblast cells (AID 1347106); note: nearly all actives have a fitted effect of over 55% in size
# Outline: as §3
# Potency is the fitted concentration of half-maximal effect; tags give direction and shape of the fitted curve.
compound,measurement,setting,value
COc1ccccc1OCC(O)COC(N)=O (stereo not drawn),Potency,[1],inactive
NS(=O)(=O)OC[C@@H]1C[C@@H](n2ccc3c(N[C@H]4CCc5ccccc54)ncnc32)C[C@H]1O,Potency,[2],"inconclusive: 0.209 µM [cytotoxic, full curve]"
same,Potency,[3],"inconclusive: 0.344 µM [cytotoxic, full curve]"
same,Potency,[4],"inconclusive: 1.18 µM [cytotoxic, partial curve]"
same,Potency,[5],active: 0.833 µM
same,Potency,[6],"inconclusive: 0.935 µM [cytotoxic, full curve]"
NC(=O)C(=O)N/N=C/c1ccc([N+](=O)[O-])o1,Potency,[2],"inconclusive: 29.9 µM [cytotoxic, single point]"
same,Potency,[3],"inconclusive: 27.6 µM [cytotoxic, single point]"
same,Potency,[4],"inconclusive: 33.5 µM [cytotoxic, single point]"
same,Potency,[7],"inconclusive: 38.9 µM [cytotoxic, single point]"
same,Potency,[5],"inconclusive: 33.5 µM [cytotoxic, single point]"
Nc1ncnc2nc[nH]c12,Potency,[2],"inconclusive: 4.22 µM [cytotoxic, partial curve]"
same,Potency,[3],inactive
same,Potency,[5],inactive
C[C@@H](c1ncncc1F)[C@](O)(Cn1cncn1)c1ccc(F)cc1F,Potency,[2],"inconclusive: 18.7 µM [cytotoxic, partial curve]"
same,Potency,[4],inactive
same,Potency,[7],"inconclusive: 27.3 µM [cytotoxic, partial curve, poor fit]"
same,Potency,[6],"inconclusive: 23.5 µM [cytotoxic, partial curve, poor fit]"
CCCCCCCCCCCCCC[N+](C)(C)C,Potency,[2],active: 16.8 µM
same,Potency,[4],active: 4.22 µM
CC1(CN2CCC(n3c(=O)[nH]c4ccccc43)CC2)OCc2ccccc2-n2cccc21 (stereo not drawn),Potency,[2],"inconclusive: 33.5 µM [cytotoxic, single point]"
same,Potency,[4],"inconclusive: 10.6 µM [cytotoxic, partial curve, poor fit]"
same,Potency,[5],"inconclusive: 20.9 µM [cytotoxic, partial curve, poor fit] and inconclusive: 16.8 µM [cytotoxic, partial curve]"
OC[C@@H](O)[C@H](O)[C@H](O)[C@@H](O)CO,Potency,[2],inactive
same,Potency,[6],inactive
CC1=C(/C=C/C(C)=C/C=C/C(C)=C/C(=O)O)C(C)(C)CCC1,Potency,[2],inactive
same,Potency,[6],"inconclusive: 0.422 µM [cytotoxic, full curve, poor fit]"
N[C@H](Cc1c[nH]c2ccccc12)C(=O)O,Potency,[2],"inconclusive: 26.6 µM [cytotoxic, single point]"
same,Potency,[3],inactive
same,Potency,[7],inactive
CCOC(=O)C1=C(C)NC2=C(C(=O)CC(C)(C)C2)C1c1ccc(-c2ccccc2)cc1 (stereo not drawn),Potency,[1],"inconclusive: 30.4 µM [cytotoxic, single point]"
same,Potency,[8],"inconclusive: 20.9 µM [cytotoxic, partial curve, poor fit]"
same,Potency,[9],"inconclusive: 29.6 µM [cytotoxic, single point]"
same,Potency,[3],active: 24.3 µM
same,Potency,[4],active: 16.6 µM
same,Potency,[7],active: 19.3 µM
Cc1c(-c2cccc3c(CCCOc4cccc5ccccc45)c(C(=O)O)n(Cc4cccnc4)c23)c(COc2ccc(N3CCN([S+](=O)([O-])N(C)C)CC3)cc2)nn1C,Potency,[2],"inconclusive: 5.26 µM [cytotoxic, partial curve]"
same,Potency,[3],"inconclusive: 27.3 µM [cytotoxic, partial curve, poor fit]"
same,Potency,[4],"inconclusive: 20.9 µM [cytotoxic, single point]"
same,Potency,[7],"inconclusive: 43.2 µM [cytotoxic, single point]"
C[C@H](O)C(=O)Nc1c(I)c(C(=O)NC(CO)CO)c(I)c(C(=O)NC(CO)CO)c1I,Potency,[1],inactive
Nc1ccc(C(=O)NCC(=O)O)cc1,Potency,[1],inactive
CC(C)(O)Cn1c(NC(=O)c2ccc(-c3cn[nH]c3)s2)nc2cc(CN3CCOCC3)ccc21,Potency,[2],active: 0.743 µM
same,Potency,[3],active: 3.43 µM
same,Potency,[4],active: 1.87 µM
same,Potency,[6],active: 3.72 µM
same,Potency,[10],active: 6.62 µM
OCc1ccc(-c2nn(Cc3ccccc3)c3ccccc23)o1,Potency,[2],"inconclusive: 26.4 µM [cytotoxic, partial curve]"
same,Potency,[3],inactive
same,Potency,[7],active: 1.72 µM
same,Potency,[5],inactive
C[C@]12C[C@H](O)[C@H]3[C@@H](CCC4=CC(=O)CC[C@@]43C)[C@@H]1CC[C@@H]2C(=O)CO,Potency,[1],inactive
CN1CC[C@@H](c2c(O)cc(O)c3c(=O)cc(-c4ccccc4Cl)oc23)[C@@H](O)C1,Potency,[1],active: 0.0764 µM
same,Potency,[8],"inconclusive: 5.9 µM [cytotoxic, partial curve, poor fit]"
same,Potency,[9],"inconclusive: 0.418 µM [cytotoxic, full curve, poor fit]"
same,Potency,[3],active: 0.122 µM
same,Potency,[4],"inconclusive: 0.235 µM [cytotoxic, full curve]"
same,Potency,[7],active: 0.122 µM
same,Potency,[5],active: 0.235 µM
CCc1c(C)[nH]c2c1C(=O)C(CN1CCOCC1)CC2 (stereo not drawn),Potency,[2],inactive
same,Potency,[6],inactive
O=[N+]([O-])c1cccc(S(=O)(=O)NCCNS(=O)(=O)c2cccc([N+](=O)[O-])c2)c1,Potency,[2],"inconclusive: 33.5 µM [cytotoxic, single point]"
same,Potency,[7],"inconclusive: 34.7 µM [cytotoxic, partial curve, poor fit]"
NC(=Nc1ccccc1)Nc1ccccc1,Potency,[2],"inconclusive: 48.6 µM [cytotoxic, partial curve]"
same,Potency,[3],"inconclusive: 11.2 µM [cytotoxic, partial curve]"
same,Potency,[5],inactive
O=C1OCCN1/N=C/c1ccc([N+](=O)[O-])o1,Potency,[1],"inconclusive: 0.097 µM [cytotoxic, full curve]"
CC1(C)O[C@@H]2[C@@H](CO[C@@]3(COS(N)(=O)=O)OC(C)(C)O[C@@H]23)O1,Potency,[2],inactive
same,Potency,[4],inactive
same,Potency,[7],inactive
CS(=O)(=O)c1ccc([C@@H](O)[C@@H](CO)NC(=O)C(Cl)Cl)cc1,Potency,[1],"inconclusive: 42.9 µM [cytotoxic, single point]"
same,Potency,[8],"inconclusive: 20.9 µM [cytotoxic, partial curve]"
same,Potency,[9],"inconclusive: 18.7 µM [cytotoxic, partial curve, poor fit]"
same,Potency,[3],"inconclusive: 4.32 µM [cytotoxic, partial curve, poor fit]"
CC(C)(C(=O)c1cccnc1)c1cccnc1,Potency,[2],"inconclusive: 29.9 µM [cytotoxic, single point]"
same,Potency,[3],inactive
same,Potency,[7],inactive
same,Potency,[6],inactive
CC(=O)OCC1=C(C(=O)O)N2C(=O)[C@@H](NC(=O)Cc3cccs3)[C@H]2SC1,Potency,[2],inactive
same,Potency,[4],inactive
same,Potency,[5],inactive
O=C1N=C(O)CN1/N=C/c1ccc(-c2ccc([N+](=O)[O-])cc2)o1,Potency,[1],inactive
CC(=O)Oc1cc(C(C)C)c(OCCN(C)C)cc1C,Potency,[2],"inconclusive: 21.1 µM [cytotoxic, single point]"
same,Potency,[6],inactive
O=C(c1cc(Cc2n[nH]c(=O)c3ccccc23)ccc1F)N1CCN(C(=O)C2CC2)CC1,Potency,[2],"inconclusive: 13.2 µM [cytotoxic, partial curve, poor fit]"
same,Potency,[3],"inconclusive: 24.3 µM [cytotoxic, partial curve]"
same,Potency,[5],"inconclusive: 3.32 µM [cytotoxic, full curve]"
same,Potency,[6],"inconclusive: 5.9 µM [cytotoxic, partial curve]"
CCOC(=O)C1=C(C)NC(C)=C(C(=O)OC)C1c1cccc([N+](=O)[O-])c1 (stereo not drawn),Potency,[2],"inconclusive: 23.7 µM [cytotoxic, single point]"
same,Potency,[4],inactive
same,Potency,[7],"inconclusive: 30.9 µM [cytotoxic, single point]"
same,Potency,[6],"inconclusive: 13.3 µM [cytotoxic, partial curve, poor fit]"
C[n+]1c2cc(N)ccc2cc2ccc(N)cc21 (tested in a mixture with another compound),Potency,[2],"inconclusive: 6.68 µM [cytotoxic, partial curve, poor fit]"
same,Potency,[3],active: 3.89 µM
same,Potency,[4],active: 8.41 µM
same,Potency,[6],"inconclusive: 26.6 µM [cytotoxic, single point]"
same,Potency,[10],"inconclusive: 18.8 µM [cytotoxic, single point]"
Cc1ccc(S(=O)(=O)Nc2nc3ccccc3nc2Nc2ccc3nsnc3c2)cc1,Potency,[1],"inconclusive: 0.527 µM [cytotoxic, full curve]"
same,Potency,[8],"inconclusive: 0.144 µM [cytotoxic, full curve]"
same,Potency,[4],"inconclusive: 2.57 µM [cytotoxic, partial curve]"
same,Potency,[6],"inconclusive: 0.812 µM [cytotoxic, full curve]"
O=C(c1ccc(OCCN2CCCCC2)cc1)c1c(-c2ccc(O)cc2)sc2cc(O)ccc12,Potency,[1],"active: 13.7 µM and inconclusive: 19.2 µM [cytotoxic, partial curve]"
same,Potency,[8],"inconclusive: 21.1 µM [cytotoxic, single point] and inconclusive: 18.7 µM [cytotoxic, single point]"
same,Potency,[9],"inconclusive: 14.8 µM [cytotoxic, partial curve]"
same,Potency,[3],"inconclusive: 12.3 µM [cytotoxic, partial curve] and inconclusive: 24.3 µM [cytotoxic, partial curve]"
same,Potency,[4],"inconclusive: 18.8 µM [cytotoxic, single point] and inconclusive: 18.7 µM [cytotoxic, partial curve]"
same,Potency,[5],active: 23.7 µM and active: 18.7 µM
same,Potency,[6],active: 26.6 µM and active: 18.7 µM
CC(=O)N(O)CCCCCNC(=O)CCC(=O)N(O)CCCCCNC(=O)CCC(=O)N(O)CCCCCN,Potency,[1],active: 5.45 µM
same,Potency,[8],"inconclusive: 15 µM [cytotoxic, partial curve]"
same,Potency,[9],"inconclusive: 33.5 µM [cytotoxic, single point]"
same,Potency,[4],"inconclusive: 33.5 µM [cytotoxic, partial curve, poor fit]"
same,Potency,[5],"inconclusive: 13.3 µM [cytotoxic, partial curve]"
